From the supplement of paper PMC11417369
The other results are listed elsewhere or left out.

Test system: PfAP2-HC AP2 domain (GST-tagged)
Experiment: gcPBM binding intensity (ln(normalized median fluorescence intensity)); higher = stronger DNA binding
In short: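 Each value is the highest Masliner-normalised natural-log median intensity across replicate spots of either orientation of a probe. The probes were primer-extended double-stranded 36-bp intergenic genomic sequences on an Agilent 4 × 180k array, alongside negative controls, exposed for 1 h to GST-tagged P. falciparum DNA-binding domains expressed in E. coli. Bound protein was picked up with Alexa488 anti-GST antibody and scanned at 488 nm.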

Question: “GTTTAACTGTTTTATACACACAATGTAGACAATAAA [CACACA_site8967]” was tested. Which “gcPBM binding intensity (ln)” value did it give?
Answer: 9.7

Question: Which “gcPBM binding intensity (ln)” value does the source give for “CACTGTAAATAGAAAGTGCAAAAATTGTAAATAAAA [GTGCAC_site9980]” here?
Answer: 9.72

Question: For “GTACAAAAAAAGTGTACACAAAGTAAGACTTTAATT [CACACA_site5068]”, which “gcPBM binding intensity (ln)” value is on record?
Answer: 9.8

Question: How did the “gcPBM binding intensity (ln)” value turn out when “ACTTGATTACACAACCACAAGTAATTGAAATTATTT [XGTACX_negctrl_site297]” was run?
Answer: 9.65

Question: With “TAAATACATTGACACACACACAAATATGTACATACA [CACACA_site7371]” as the sequence, how does the “gcPBM binding intensity (ln)” value read?
Answer: 10.5

Question: With “TGAAAAGATAAAAAATGTACATATATATTATATATA [XGTACX_site5678]” as the sequence, how does the “gcPBM binding intensity (ln)” value read?
Answer: 9.71

Question: “TTTCTAAATAATATACACAAAAAAATAAAACACTAA [TGCATGCA_negctrl_site43]” was tested. Which “gcPBM binding intensity (ln)” value did it give?
Answer: 9.56

Question: Which “gcPBM binding intensity (ln)” value does the source give for “ATACACAATTATTTTCCTATTATGCAAGCAAATTTA [CACACA_negctrl_site1176]” here?
Answer: 9.52

Question: How did the “gcPBM binding intensity (ln)” value turn out when “ACATCTAGGCTTATTTTATGATACATGTGAATATAT [TGCATGCA_negctrl_site325]” was run?
Answer: 9.77

Question: With “GTTTTTGAGTAGTACACACACAATAAGGATGGATTC [CACACA_site3192]” as the sequence, how does the “gcPBM binding intensity (ln)” value read?
Answer: 9.93

Question: For “ATAAAAACTACATTCACACAAAAAAAAATCTACAAA [CACACA_site6109]”, which “gcPBM binding intensity (ln)” value is on record?
Answer: 9.69

Question: For “AATAATATTAATAAAAGTACATGTGTAATATATATA [XGTACX_site5922]”, which “gcPBM binding intensity (ln)” value is on record?
Answer: 9.88

Question: With “ATAAAGATAATATATGCACACATATAAATATATAAA [CACACA_site9153]” as the sequence, how does the “gcPBM binding intensity (ln)” value read?
Answer: 10.1

Question: How did the “gcPBM binding intensity (ln)” value turn out when “ATATATATATGTTAGGTGCATATATATTTTGTGGAT [GTGCAC_site9964]” was run?
Answer: 9.8

Question: “ATATATATAATATATTGTACATATAATATATATATA [XGTACX_site4792]” was tested. Which “gcPBM binding intensity (ln)” value did it give?
Answer: 9.43

Question: Which “gcPBM binding intensity (ln)” value does the source give for “GAATAATTAAAAGGTAGTACAAAGGTTATCAAAAGG [XGTACX_site8496]” here?
Answer: 9.73

Question: For “GATATGATTATGTGATGGTGTTTTTGATAGATATTT [CACACA_negctrl_site1445]”, which “gcPBM binding intensity (ln)” value is on record?
Answer: 9.87

Question: For TTGTTCTTTTGAAAGGTGCAAAAGAAAAATAATTAA, which “gcPBM binding intensity (ln)” value is on record?
Answer: 9.62

Question: How did the “gcPBM binding intensity (ln)” value turn out when “AGAAAACCGAAAGAGACACACAACATGTCGATTTAG [CACACA_site3764]” was run?
Answer: 9.83

Question: How did the “gcPBM binding intensity (ln)” value turn out when “ATAATTTCTATTTCACAAAAAAAAAAAAAAAAAAAA [CACACA_negctrl_site1012]” was run?
Answer: 8.74

Question: With “ACTAAAAGGCTTAAATGTACATATTATATATATATA [XGTACX_site5897]” as the sequence, how does the “gcPBM binding intensity (ln)” value read?
Answer: 9.61

Question: “CTTTTTTTTTTGGGGGTGCATGCAAGACATATATTT [GTGCAC_site9660]” was tested. Which “gcPBM binding intensity (ln)” value did it give?
Answer: 9.69

Question: Which “gcPBM binding intensity (ln)” value does the source give for “ACATAACTTATATATACACACAATACAAATATATAT [CACACA_site2774]” here?
Answer: 10.1

Question: How did the “gcPBM binding intensity (ln)” value turn out when “TTTAATTTTTATATAACACACATATTGTAATTATGT [CACACA_site4566]” was run?
Answer: 9.92

Question: For “ATGTTTAATTAAATATGTACTTATTATATTATATGT [XGTACX_site8137]”, which “gcPBM binding intensity (ln)” value is on record?
Answer: 9.68

Question: For “AGGAATCTACATATATGTACATATATTGATATATTT [XGTACX_site137]”, which “gcPBM binding intensity (ln)” value is on record?
Answer: 9.79

Question: For “TATATATGTAGACGTTGTACTTTTTTGTAAGTTTAA [XGTACX_site5638]”, which “gcPBM binding intensity (ln)” value is on record?
Answer: 9.52

Question: Which “gcPBM binding intensity (ln)” value does the source give for “TTTAAATTTTTATATTGTACTTTATTTATTTATTTA [XGTACX_site869]” here?
Answer: 9.75

Question: Which “gcPBM binding intensity (ln)” value does the source give for “CATGACATATCCTGTAGTACAACGTATATATAAGAT [XGTACX_site2577]” here?
Answer: 9.74

Question: How did the “gcPBM binding intensity (ln)” value turn out when “AAAATAAAATCATAAAGTACAAAAAGAAAATAAAAA [XGTACX_site7376]” was run?
Answer: 9.68

Question: How did the “gcPBM binding intensity (ln)” value turn out when “AATTTTCAATAGTATACACACAATTATATATATATA [CACACA_site1116]” was run?
Answer: 9.77

Question: How did the “gcPBM binding intensity (ln)” value turn out when “TCTTTTCTCGGAAGGGTGCAAGGAATTAATGAAATA [GTGCAC_site9706]” was run?
Answer: 9.4

Question: Which “gcPBM binding intensity (ln)” value does the source give for “TCAATAAATATACATACATGCATACATACATACATA [TGCATGCA_site197]” here?
Answer: 9.62

Question: For “TGTGTTAATATGAATTTAAACATAAATAAATAAATA [CACACA_negctrl_site1589]”, which “gcPBM binding intensity (ln)” value is on record?
Answer: 9.53

Question: With “GAACATTTATTGTGTGTGCACAATTCTTTTTTAACC [GTGCAC_site9697]” as the sequence, how does the “gcPBM binding intensity (ln)” value read?
Answer: 9.98

Question: With “AATAAAATATATTCCTGTACATATGATTCTTTTTTT [XGTACX_site7980]” as the sequence, how does the “gcPBM binding intensity (ln)” value read?
Answer: 9.69

Question: Which “gcPBM binding intensity (ln)” value does the source give for “TTTACATATTTATATACACACTTTTGCGTGCGTGGT [CACACA_site6647]” here?
Answer: 9.77

Question: How did the “gcPBM binding intensity (ln)” value turn out when “ATACATATATATATATGTACATATGTATTTTTTATT [XGTACX_site105]” was run?
Answer: 9.84

Question: How did the “gcPBM binding intensity (ln)” value turn out when “ACTATACAGTTATACACACACATATATCTATAATAT [CACACA_site6283]” was run?
Answer: 10.1

Question: “TAGTATAATATGAACACACACACACCGACAAAAAAA [CACACA_site5151]” was tested. Which “gcPBM binding intensity (ln)” value did it give?
Answer: 10.5

Question: For “AATTGAAAAAGAAATTGTACATTTTATTTTTATTAT [XGTACX_site1973]”, which “gcPBM binding intensity (ln)” value is on record?
Answer: 9.54

Question: How did the “gcPBM binding intensity (ln)” value turn out when “ATATAATTTATATATTCACACAAGGAATACTTTTAT [CACACA_site5506]” was run?
Answer: 9.68

Question: For “TTTTATTTGACAAGCACACACTTAAATATATATATA [CACACA_site5792]”, which “gcPBM binding intensity (ln)” value is on record?
Answer: 9.79

Question: With “AAACAAAAAATAAAATGTACATTTATTACGATAAGT [XGTACX_site2392]” as the sequence, how does the “gcPBM binding intensity (ln)” value read?
Answer: 9.92

Question: With “ATGGAATAATCACGTACACACAAGAAAAAAAAAAAT [CACACA_site527]” as the sequence, how does the “gcPBM binding intensity (ln)” value read?
Answer: 10

Question: How did the “gcPBM binding intensity (ln)” value turn out when “GGATAATATATTAGAACACACATATATATGTAAAAA [CACACA_site185]” was run?
Answer: 9.9

Question: With “ATTACAAATACAAACACACAAATGTTTTTCATTCAA [CACACA_site7639]” as the sequence, how does the “gcPBM binding intensity (ln)” value read?
Answer: 9.68

Question: With “AGTAAATTTGATGGTCGTACAAAAAAAAAGTAGGAC [XGTACX_site2600]” as the sequence, how does the “gcPBM binding intensity (ln)” value read?
Answer: 9.78

Question: “ATATACATAATTTGGAGTACAATATCATATAAATAT [XGTACX_site6334]” was tested. Which “gcPBM binding intensity (ln)” value did it give?
Answer: 9.61

Question: For “TTTTTAATCAGAAATATTTATTAAAGAATTTTATAG [GTGCAC_negctrl_site725]”, which “gcPBM binding intensity (ln)” value is on record?
Answer: 9.21

Question: For “ACGAAGTATATGAATACACACATATTTTTAATGAAA [CACACA_site4070]”, which “gcPBM binding intensity (ln)” value is on record?
Answer: 9.92

Question: With “CATTTAAAATTTGTTTGTACATATATATATATATAT [XGTACX_site6729]” as the sequence, how does the “gcPBM binding intensity (ln)” value read?
Answer: 9.74

Question: How did the “gcPBM binding intensity (ln)” value turn out when “TTTTACAATAACAATACACACTATAATATGTAAATA [CACACA_site6772]” was run?
Answer: 9.71

Question: With “ATATATATATATATATGTACTTATGTCATCATTAAA [XGTACX_site5316]” as the sequence, how does the “gcPBM binding intensity (ln)” value read?
Answer: 9.62

Question: How did the “gcPBM binding intensity (ln)” value turn out when TATATGTATGTTTGTGTGCACACATAAATATTATAT was run?
Answer: 10.2

Question: Which “gcPBM binding intensity (ln)” value does the source give for “GTATAAAATATTTTATGTACATAATATATATATATA [XGTACX_site2489]” here?
Answer: 9.56

Question: For “AAATAAAGGAAATGTATATCAACATTAAAATAAGGC [CACACA_negctrl_site441]”, which “gcPBM binding intensity (ln)” value is on record?
Answer: 9.99
